Many values rest on one well or one pass, so single values are uncertain.
Key:
[1] = tested on: CHO-K1; test: micronucleus frequency (% of nucleated events); higher = more micronuclei (genotoxic)
[2] = tested on: CHO-K1; test: hypodiploid nuclei frequency (% of nucleated events); higher = more hypodiploid events (aneugenic)
Protocol: (§1)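 Flow-cytometric in vitro micronucleus assay (Litron MicroFlow) in CHO-K1 cells in 96-well plates, 19 concentrations (4.5-200 µM, n=1 per concentration). Without S9, cells were exposed for 24 h and sampled at 48 h. With Aroclor 1254-induced rat liver S9, cells were exposed for 3-4 h and sampled at 27-28 h. Read-outs are %MN and %hypodiploid nuclei relative to nucleated events, and relative survival as the nuclei-to-bead ratio versus the 1% DMSO vehicle control (x100).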

[3] = tested on: CHO-K1; test: relative survival (nuclei to bead ratio vs DMSO control) (% of vehicle control); higher = more surviving cells
Protocol: as §1
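Throughout, for hypodiploid nuclei frequency (% of nucleated events): hypodiploid nuclei gated on a flow cytometer with 488 nm excitation after SYTOX Green staining, cultures at 37 °C, positive controls vinblastine without S9 and cyclophosphamide with S9.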
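Throughout, for micronucleus frequency (% of nucleated events): cells lysed with nuclei stained by SYTOX Green, then micronucleus-gated events counted against nucleated events by flow cytometry with 488 nm excitation.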
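Throughout, for relative survival (nuclei to bead ratio vs DMSO control): Lysed-cell nuclei stained with SYTOX Green and counted against counting beads by flow cytometry at 488 nm excitation, with vinblastine (no S9) and cyclophosphamide (plus S9) as positive controls.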

O=[N+]([O-])c1ccc(Cl)cc1 [1-Chloro-4-nitrobenzene]
Conditions	hypodiploid nuclei frequency, [2] [%]	micronucleus frequency, [1] [%]	relative survival, [3]
concentration: 4.5 (µM), S9 metabolic activation: with S9, exposure time: 3-4 hours	0.34	2	95.5
concentration: 4.5 (µM), S9 metabolic activation: without S9, exposure time: 24 hours	0.88	1.94	90.8
concentration: 5.63 (µM), S9 metabolic activation: with S9, exposure time: 3-4 hours	0.26	1.88	88.7
concentration: 5.63 (µM), S9 metabolic activation: without S9, exposure time: 24 hours	0.62	1.92	113
concentration: 7.04 (µM), S9 metabolic activation: with S9, exposure time: 3-4 hours	0.18	0.86	70.5
concentration: 7.04 (µM), S9 metabolic activation: without S9, exposure time: 24 hours	0.52	1.9	113
concentration: 8.8 (µM), S9 metabolic activation: with S9, exposure time: 3-4 hours	0.26	1.66	79.5
concentration: 8.8 (µM), S9 metabolic activation: without S9, exposure time: 24 hours	1.12	2	116
concentration: 11 (µM), S9 metabolic activation: with S9, exposure time: 3-4 hours	0.22	1.16	71.4
concentration: 11 (µM), S9 metabolic activation: without S9, exposure time: 24 hours	0.76	2.44	109
concentration: 13.7 (µM), S9 metabolic activation: with S9, exposure time: 3-4 hours	0.36	1.48	79
concentration: 13.7 (µM), S9 metabolic activation: without S9, exposure time: 24 hours	0.88	2.54	98.9
concentration: 17.2 (µM), S9 metabolic activation: with S9, exposure time: 3-4 hours	0.2	1.36	71.4
concentration: 17.2 (µM), S9 metabolic activation: without S9, exposure time: 24 hours	0.62	2.1	114
concentration: 21.5 (µM), S9 metabolic activation: with S9, exposure time: 3-4 hours	0.18	1.16	87.7
concentration: 21.5 (µM), S9 metabolic activation: without S9, exposure time: 24 hours	0.56	2.54	113
concentration: 26.8 (µM), S9 metabolic activation: with S9, exposure time: 3-4 hours	0.24	1.3	71.6
concentration: 26.8 (µM), S9 metabolic activation: without S9, exposure time: 24 hours	0.76	1.56	103
concentration: 33.6 (µM), S9 metabolic activation: with S9, exposure time: 3-4 hours	0.18	1.44	98.9
concentration: 33.6 (µM), S9 metabolic activation: without S9, exposure time: 24 hours	0.74	2.32	102
concentration: 41.9 (µM), S9 metabolic activation: with S9, exposure time: 3-4 hours	0.28	1.32	116
concentration: 41.9 (µM), S9 metabolic activation: without S9, exposure time: 24 hours	0.7	1.8	104
concentration: 52.4 (µM), S9 metabolic activation: with S9, exposure time: 3-4 hours	0.32	1.32	147
concentration: 52.4 (µM), S9 metabolic activation: without S9, exposure time: 24 hours	0.86	1.7	112
concentration: 65.5 (µM), S9 metabolic activation: with S9, exposure time: 3-4 hours	0.34	1.22	91
concentration: 65.5 (µM), S9 metabolic activation: without S9, exposure time: 24 hours	0.8	1.86	111
concentration: 81.9 (µM), S9 metabolic activation: with S9, exposure time: 3-4 hours	0.28	1.42	117
concentration: 81.9 (µM), S9 metabolic activation: without S9, exposure time: 24 hours	0.86	1.8	113
concentration: 102 (µM), S9 metabolic activation: with S9, exposure time: 3-4 hours	0.3	1.4	108
concentration: 102 (µM), S9 metabolic activation: without S9, exposure time: 24 hours	1.02	2.16	103
concentration: 128 (µM), S9 metabolic activation: with S9, exposure time: 3-4 hours	0.28	1.56	89.5
concentration: 128 (µM), S9 metabolic activation: without S9, exposure time: 24 hours	1.22	2.26	104
concentration: 160 (µM), S9 metabolic activation: with S9, exposure time: 3-4 hours	0.28	1.06	113
concentration: 160 (µM), S9 metabolic activation: without S9, exposure time: 24 hours	1.28	2.86	105
concentration: 200 (µM), S9 metabolic activation: with S9, exposure time: 3-4 hours	0.18	1.1	122
concentration: 200 (µM), S9 metabolic activation: without S9, exposure time: 24 hours	1.44	2.86	98

CCCCCCCCCCO [1-Decanol]
Conditions	hypodiploid nuclei frequency, [2] [%]	micronucleus frequency, [1] [%]	relative survival, [3]
concentration: 4.5 (µM), S9 metabolic activation: with S9, exposure time: 3-4 hours	0.24	1.38	97.5
concentration: 4.5 (µM), S9 metabolic activation: without S9, exposure time: 24 hours	0.88	1.82	101
concentration: 5.63 (µM), S9 metabolic activation: with S9, exposure time: 3-4 hours	0.56	1.44	86.7
concentration: 5.63 (µM), S9 metabolic activation: without S9, exposure time: 24 hours	0.92	2.18	114
concentration: 7.04 (µM), S9 metabolic activation: with S9, exposure time: 3-4 hours	0.2	1.42	101
concentration: 7.04 (µM), S9 metabolic activation: without S9, exposure time: 24 hours	0.8	1.72	95.6
concentration: 8.8 (µM), S9 metabolic activation: with S9, exposure time: 3-4 hours	0.24	1.22	132
concentration: 8.8 (µM), S9 metabolic activation: without S9, exposure time: 24 hours	0.7	1.82	124
concentration: 11 (µM), S9 metabolic activation: with S9, exposure time: 3-4 hours	0.24	1.52	84
concentration: 11 (µM), S9 metabolic activation: without S9, exposure time: 24 hours	0.78	2.44	128
concentration: 13.7 (µM), S9 metabolic activation: with S9, exposure time: 3-4 hours	0.22	1.32	134
concentration: 13.7 (µM), S9 metabolic activation: without S9, exposure time: 24 hours	0.44	2.28	139
concentration: 17.2 (µM), S9 metabolic activation: with S9, exposure time: 3-4 hours	0.24	1.12	117
concentration: 17.2 (µM), S9 metabolic activation: without S9, exposure time: 24 hours	0.54	2.3	149
concentration: 21.5 (µM), S9 metabolic activation: with S9, exposure time: 3-4 hours	0.32	0.98	122
concentration: 21.5 (µM), S9 metabolic activation: without S9, exposure time: 24 hours	0.9	2.42	130
concentration: 26.8 (µM), S9 metabolic activation: with S9, exposure time: 3-4 hours	0.12	1.1	115
concentration: 26.8 (µM), S9 metabolic activation: without S9, exposure time: 24 hours	0.54	1.48	119
concentration: 33.6 (µM), S9 metabolic activation: with S9, exposure time: 3-4 hours	0.36	1.38	112
concentration: 33.6 (µM), S9 metabolic activation: without S9, exposure time: 24 hours	0.74	1.64	130
concentration: 41.9 (µM), S9 metabolic activation: with S9, exposure time: 3-4 hours	0.18	1.5	102
concentration: 41.9 (µM), S9 metabolic activation: without S9, exposure time: 24 hours	0.98	2.26	115
concentration: 52.4 (µM), S9 metabolic activation: with S9, exposure time: 3-4 hours	0.2	1.5	118
concentration: 52.4 (µM), S9 metabolic activation: without S9, exposure time: 24 hours	0.7	2.14	124
concentration: 65.5 (µM), S9 metabolic activation: with S9, exposure time: 3-4 hours	0.22	1.42	112
concentration: 65.5 (µM), S9 metabolic activation: without S9, exposure time: 24 hours	1.08	2.52	120
concentration: 81.9 (µM), S9 metabolic activation: with S9, exposure time: 3-4 hours	0.2	1.18	121
concentration: 81.9 (µM), S9 metabolic activation: without S9, exposure time: 24 hours	0.9	1.94	134
concentration: 102 (µM), S9 metabolic activation: with S9, exposure time: 3-4 hours	0.2	1.06	125
concentration: 102 (µM), S9 metabolic activation: without S9, exposure time: 24 hours	0.96	1.88	112
concentration: 128 (µM), S9 metabolic activation: with S9, exposure time: 3-4 hours	0.1	1.06	140
concentration: 128 (µM), S9 metabolic activation: without S9, exposure time: 24 hours	1.22	2.58	110
concentration: 160 (µM), S9 metabolic activation: with S9, exposure time: 3-4 hours	0.3	1.26	122
concentration: 160 (µM), S9 metabolic activation: without S9, exposure time: 24 hours	1.04	2.76	99.2
concentration: 200 (µM), S9 metabolic activation: with S9, exposure time: 3-4 hours	0.28	0.6	107
concentration: 200 (µM), S9 metabolic activation: without S9, exposure time: 24 hours	1.46	2.56	140

c1ccc2occc2c1 [2,3-Benzofuran]
Conditions	hypodiploid nuclei frequency, [2] [%]	micronucleus frequency, [1] [%]	relative survival, [3]
concentration: 4.55 (µM), S9 metabolic activation: with S9, exposure time: 3-4 hours	0.44	2.18	138
concentration: 4.55 (µM), S9 metabolic activation: without S9, exposure time: 24 hours	0.48	1.88	75.7
concentration: 5.69 (µM), S9 metabolic activation: with S9, exposure time: 3-4 hours	0.3	1.78	101
concentration: 5.69 (µM), S9 metabolic activation: without S9, exposure time: 24 hours	0.52	1.24	79.7
concentration: 7.11 (µM), S9 metabolic activation: with S9, exposure time: 3-4 hours	0.28	1.5	102
concentration: 7.11 (µM), S9 metabolic activation: without S9, exposure time: 24 hours	0.62	1.38	79.4
concentration: 8.88 (µM), S9 metabolic activation: with S9, exposure time: 3-4 hours	0.12	1.64	93.1
concentration: 8.88 (µM), S9 metabolic activation: without S9, exposure time: 24 hours	0.6	1.68	93.7
concentration: 11.1 (µM), S9 metabolic activation: with S9, exposure time: 3-4 hours	0.22	1.86	99.6
concentration: 11.1 (µM), S9 metabolic activation: without S9, exposure time: 24 hours	0.6	1.38	82.2
concentration: 13.9 (µM), S9 metabolic activation: with S9, exposure time: 3-4 hours	0.22	1.88	114
concentration: 13.9 (µM), S9 metabolic activation: without S9, exposure time: 24 hours	0.56	1.34	90.8
concentration: 17.4 (µM), S9 metabolic activation: with S9, exposure time: 3-4 hours	0.26	2.42	103
concentration: 17.4 (µM), S9 metabolic activation: without S9, exposure time: 24 hours	0.32	1.54	81.6
concentration: 21.7 (µM), S9 metabolic activation: with S9, exposure time: 3-4 hours	0.36	3.08	113
concentration: 21.7 (µM), S9 metabolic activation: without S9, exposure time: 24 hours	0.54	1.46	83.5
concentration: 27.1 (µM), S9 metabolic activation: with S9, exposure time: 3-4 hours	2.56	0.9	138
concentration: 27.1 (µM), S9 metabolic activation: without S9, exposure time: 24 hours	0.8	1.36	88.9
concentration: 33.9 (µM), S9 metabolic activation: with S9, exposure time: 3-4 hours	0.26	1.64	198
concentration: 33.9 (µM), S9 metabolic activation: without S9, exposure time: 24 hours	0.66	1.5	100
concentration: 42.4 (µM), S9 metabolic activation: with S9, exposure time: 3-4 hours	0.16	1.08	158
concentration: 42.4 (µM), S9 metabolic activation: without S9, exposure time: 24 hours	0.92	1.52	93.7
concentration: 53 (µM), S9 metabolic activation: with S9, exposure time: 3-4 hours	0.18	1.76	136
concentration: 53 (µM), S9 metabolic activation: without S9, exposure time: 24 hours	0.72	1.6	90
concentration: 66.2 (µM), S9 metabolic activation: with S9, exposure time: 3-4 hours	0.14	1.72	126
concentration: 66.2 (µM), S9 metabolic activation: without S9, exposure time: 24 hours	0.76	1.26	87.8
concentration: 82.7 (µM), S9 metabolic activation: with S9, exposure time: 3-4 hours	0.28	1.18	106
concentration: 82.7 (µM), S9 metabolic activation: without S9, exposure time: 24 hours	0.62	1.66	85.2
concentration: 103 (µM), S9 metabolic activation: with S9, exposure time: 3-4 hours	0.12	1.4	137
concentration: 103 (µM), S9 metabolic activation: without S9, exposure time: 24 hours	0.68	1.52	81.9
concentration: 129 (µM), S9 metabolic activation: with S9, exposure time: 3-4 hours	0.34	1.76	147
concentration: 129 (µM), S9 metabolic activation: without S9, exposure time: 24 hours	0.66	1.54	93.2
concentration: 162 (µM), S9 metabolic activation: with S9, exposure time: 3-4 hours	0.26	2.06	120
concentration: 162 (µM), S9 metabolic activation: without S9, exposure time: 24 hours	1.24	1.92	92
concentration: 202 (µM), S9 metabolic activation: with S9, exposure time: 3-4 hours	0.24	1.94	127
concentration: 202 (µM), S9 metabolic activation: without S9, exposure time: 24 hours	0.86	2.08	78.5
